Some of the results follow. The main result of the screen is listed elsewhere. These columns were measured beside it and carry no call. Most of these compounds were active or inconclusive in the main read-out, so they are no random draw.

This assay in a line: up-regulation of insulin promoter-GFP reporter – imaging, high-content screening, mouse beta cells (AID 1625).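 Also: total cells summed across four imaged fields per well.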 Particulars: MIN6 insulin promoter-GFP reporter, measured here: cytotoxicity, nuclei count, at 5 µM.
Compound `COc1cccc(NC(=O)Cc2nnc(SCC(=O)c3ccccc3)n2C)c1` displayed a cell count of 471 cells.

Turning to `Cc1nc2c(oc3ccccc32)c(=O)o1`, the cell count was 1150 cells.

`C=CCN1C(=O)/C(=C/C=C2/N(CC)c3ccc(S(=O)(=O)N(C)C)cc3N2CC)SC1=S` showed a cell count of 1280 cells.

`CCN(CC)c1ccc(/C=C(/C#N)c2nc3ccc(C)cc3[nH]2)c(OC(C)C)c1` had a cell count of 1370 cells.

On to `O=C(Cn1cc(C(=O)c2cccs2)c2ccccc21)NCc1cccs1`, for which the cell count is 496 cells.

For `Cc1cccn2c(=O)c(/C=C3\SC(=S)NC3=O)c(NCCCN3CCOCC3)nc12`, the cell count worked out at 1500 cells.

Consider `COC(=O)c1cc(NC(=O)c2cccc(Cl)c2)c(=O)oc1/C=C/Nc1cc(C)cc(C)c1`, for which the cell count stood at 1230 cells.

Compound `CCCN1CCCc2cc(CN)ccc21` had a cell count of 163 cells.

For the compound `O=C(CN(c1cccc(C(F)(F)F)c1)S(=O)(=O)c1ccc(Cl)c([N+](=O)[O-])c1)NCc1ccc(F)cc1`, the cell count amounted to 318 cells.

The compound `c1ccc(Cn2c(-c3ccccc3)c[n+]3c2SCCC3)cc1` displayed a cell count of 394 cells.

As to `S=c1[nH]nc(-c2ccccc2)n1CC1CCCO1` (stereo not drawn), the cell count came out at 1220 cells.

Regarding `O=C(N/N=C/C(Br)=C/c1ccccc1)c1n[nH]c2c1CCC2`, the cell count was 499 cells.

Regarding `COC1=CCC2([N+](=O)[O-])CN(CCO)CC1([N+](=O)[O-])C2` (stereo not drawn), the cell count was found to be 1320 cells.

`CC(C)SC1=NC(C)(C)C=C(/C=C/c2ccc(Cl)cc2Cl)N1` gave a cell count of 848 cells.

In turn, `CN(C)c1ccc(C(=O)N/N=C/c2cc(Br)cc(Br)c2O)cc1` showed a cell count of 915 cells.

Compound `CCNc1ccc2noc3c2c1C(=O)c1ccccc1-3` had a cell count of 900 cells.

Compound `Cc1cc(N/N=C/c2ccc([N+](=O)[O-])o2)nc2ccccc12` returned a cell count of 1020 cells.

In the case of `CN1CC=C2C(C#N)=C(N)C(C#N)(C#N)[C@H](c3cccs3)[C@H]2C1`, the cell count is 772 cells.

In turn, `COc1cc(N2CCCC2)c(OC)cc1/C=C1/NC(=S)NC1=O` showed a cell count of 1330 cells.

`CCN1/C(=C/c2ccc3cc(C)ccc3[n+]2C)Sc2ccc3sccc3c21`: the cell count turned out to be 241 cells.

Turning to `COc1ccc(-n2c(Cc3cccn3C)nnc2SCC(=O)Nc2cccc(C)c2C)cc1`, the cell count came to 1450 cells.

Regarding `COc1ccc(NC(=O)/C(Cl)=C(/Cl)S(=O)Cc2ccccc2Cl)cn1` (stereo not drawn), the cell count came to 476 cells.

`CN(C)c1ccc(/C=C(/C#N)C(=O)NCc2ccccc2)o1`: the cell count came to 1150 cells.

`Cc1nn(Cc2cccc(F)c2)c(C)c1NC(=O)c1c(Cl)cnn1C` displayed a cell count of 294 cells.

Compound `CC(NC(=O)/C(C#N)=C1\N=C(NC(=O)c2ccco2)c2ccccc21)c1ccccc1` (stereo not drawn) came in with a cell count of 1100 cells.

For `Cc1ccc(S(=O)(=O)Nc2ccc(=O)n(Cc3ccc(Cl)c(Cl)c3)c2)cc1`, the cell count turned out to be 1440 cells.

The compound `Cc1ccc(C(c2sc3nc(C)nn3c2O)N2CCN(CCO)CC2)cc1` (stereo not drawn) had a cell count of 465 cells.

`CC(=O)C1=C(C)Nc2ncnn2C1c1ccc(Cl)cc1Cl` (stereo not drawn) returned a cell count of 1220 cells.

`Nc1nc(CSCCO)nc(Nc2ccc(F)cc2)n1` returned a cell count of 498 cells.

Compound `Cc1ccc(C(=O)C[n+]2cc(-c3ccc(C)cc3)n3c2CCCCC3)cc1` returned a cell count of 213 cells.

In turn, `CCN1CCc2c(sc(NC(=S)NC(=O)c3ccc(Cl)cc3)c2C(N)=O)C1` registered a cell count of 1510 cells.

On to `O=C1/C(=C/c2c[nH]c3ccccc23)CCC/C1=C\c1c[nH]c2ccccc12`, for which the cell count came out at 1070 cells.

As for `Cc1oc(C)c2c(=O)ccc3c(c12)OC(N)=C(C#N)C3c1ccc(F)cc1` (stereo not drawn), the cell count is 1040 cells.

In turn, `CCCCn1nc(-c2ccccc2)c2nc3ccccc3nc21` displayed a cell count of 1420 cells.

`CSc1nnc(Cc2cc(=O)[nH]c(=O)[nH]2)n1-c1cccc(C)c1`: the cell count was 486 cells.

In turn, `COc1ccc(NC(=O)CC2Oc3ccccc3NC2=O)cc1` (stereo not drawn) gave a cell count of 445 cells.

For the compound `O=C(O)c1n[nH]c2c1CCCCC2`, the cell count came to 236 cells.

In the case of `Cn1cc(/C=C2\SC(=S)N(NC(=O)c3cccc(Cl)c3)C2=O)c2ccccc21`, the cell count was 1010 cells.

`O=c1c2ccccc2c(C=Nc2ccccc2O)c(O)n1-c1nccs1` showed a cell count of 1500 cells.

Regarding `CN(C)c1ccc(/C=C2\N=C(c3ccc(Cl)c([N+](=O)[O-])c3)NC2=O)cc1`, the cell count worked out at 1380 cells.

Compound `CCN1C=CC2=C(C#N)C(N)C(C#N)(C#N)C(c3ccccc3C(F)(F)F)C2C1` (stereo not drawn) yielded a cell count of 625 cells.

Turning to `CC(=O)Nc1ccc(N=Cc2c(O)c(C(=O)Nc3ccccc3)cc3ccccc23)cc1`, the cell count came out at 1030 cells.

As for `CCC(C)(C)n1nnnc1CN1CCN(C(c2ccccc2)c2ccccc2)CC1`, the cell count is 417 cells.

`CCCS(=O)(=O)n1nc(-c2ccccc2)cc1N` came in with a cell count of 359 cells.

The compound `CC(=O)NC(c1ccc(Cl)cc1)c1c(O)ccc2ccc(O)cc12` (stereo not drawn) showed a cell count of 1500 cells.

Compound `COc1ccccc1Nc1nc(Cl)c(C=O)s1` showed a cell count of 1110 cells.

`Cn1c(=O)c2c(nc(NCc3ccco3)n2CCc2ccccc2)n(C)c1=O`: the cell count is 382 cells.

Turning to `Oc1ccc(N=Nc2ccc3c(c2)OCO3)c2ccccc12`, the cell count turned out to be 302 cells.

Turning to `COc1ccc(S(=O)(=O)Nc2cc(Sc3ncn[nH]3)c(O)c3ccccc23)cc1`, the cell count turned out to be 410 cells.

The compound `CCCNC(=O)Cn1c(=O)/c(=C\c2ccc(-c3ccc([N+](=O)[O-])cc3)o2)s/c1=C\C(=O)C(C)(C)C` came in with a cell count of 1130 cells.

`Cc1ccccc1Cn1ccc(=NCc2ccccc2)cc1` displayed a cell count of 181 cells.

For `CN1/C(=C\C(=O)CSc2nnc(NCc3ccccc3)s2)C(C)(C)c2ccccc21`, the cell count was 432 cells.

As for `O=C(/C=C/c1cn(CC(O)CN2CCCCCC2)c2ccccc12)c1cccs1` (stereo not drawn), the cell count came out at 1120 cells.

`COc1ccc(CCNC(=O)C2CCN(Cc3nc(-c4ccccc4C)oc3C)CC2)cc1OC` came in with a cell count of 463 cells.

In turn, `COCCn1c(-c2ccc(OC)cc2)cnc1SCC(=O)Nc1cc(C)on1` had a cell count of 421 cells.

As to `Cc1nc2sccn2c1-c1csc(NCc2ccccc2)n1`, the cell count was determined as 372 cells.

As to `CCN1/C(=C/c2ccc3cc(C)cc(C)c3[n+]2CC)Sc2cc(C)ccc21`, the cell count worked out at 245 cells.

In the case of `CC1(C)CC(N2CCN(C(c3ccccc3)c3ccccc3)CC2)=CC(=[N+]2CCCCC2)C1`, the cell count was determined as 191 cells.

`CNC1=C(N(C(C)=O)c2ccc(Br)cc2)C(=O)c2ccccc2C1=O` displayed a cell count of 295 cells.

Take `N#C/C(=C/c1ccc(N2CCCCC2)o1)c1cccc(F)c1`: the cell count came out at 882 cells.

With `COc1ccc2c(C(=O)CN(C)C3CCCCC3)c[nH]c2c1`, the cell count came to 1120 cells.

Compound `C/C(Cl)=C\Cn1c(NCCc2ccccc2)nc2c1c(=O)n(C)c(=O)n2C` showed a cell count of 419 cells.

As to `Cc1ccc(CN2CCN(CC(=O)NCCCN3CCN(c4ccc(F)cc4)CC3)C2=O)cc1`, the cell count was 416 cells.

With `O=C(Nc1cccc(Cl)c1)Nc1nnc(-c2ccncc2)s1`, the cell count amounted to 390 cells.

`COc1ccc(NC(=O)c2[nH]c(C)c(C(C)=O)c2C)cc1Cl` registered a cell count of 912 cells.

Take `COC(=O)c1cc2occc2n1Cc1c(F)cccc1Cl`: the cell count was found to be 1160 cells.

`CCOc1ccc(-n2c(-c3ccccc3)c[n+]3c2CCCCC3)cc1`: the cell count worked out at 301 cells.

Consider `Fc1ccc2[nH]c3c(N4CCN(C5CCCCC5)CC4)ncnc3c2c1`, for which the cell count stood at 429 cells.

The compound `CCC(Oc1ccccc1)C(=O)NCc1ccc(S(N)(=O)=O)cc1` (stereo not drawn) came in with a cell count of 366 cells.

`COc1ccc(C(=O)c2sc3nc(-c4ccccc4)ccc3c2N)cc1` had a cell count of 351 cells.

Compound `O=C(NCc1cccnc1)c1c[nH]c2cc3c(cc2c1=O)OCCO3` showed a cell count of 346 cells.

On to `C=CCNc1nc2c(c(=O)n(C)c(=O)n2C)n1CCCCCC`, for which the cell count worked out at 400 cells.

`CC[n+]1c(C=C2C=C(C)OC(C)=C2)sc2ccccc21` returned a cell count of 392 cells.

The compound `N#C/C(=C\C1=C(N2CCOCC2)C(=C/c2cccc([N+](=O)[O-])c2)/CC1)C(=O)Nc1ccccc1F` came in with a cell count of 1030 cells.

With `COC(=O)c1ccc(COc2ccc3c(C)c(C)c(=O)oc3c2)o1`, the cell count was found to be 1150 cells.

For `CCOC(=O)C1CCN(C(=O)c2sc3nc(C)nc(N4CCC(C)CC4)c3c2C)CC1`, the cell count was 329 cells.

As to `CN1/C(=C\C(=O)CN2C(=O)NC3(CCCCCC3)C2=O)C(C)(C)c2ccccc21`, the cell count came out at 464 cells.

The compound `COc1ccc(NC(=O)c2sc3nc(-c4cccnc4)ccc3c2N)cc1` displayed a cell count of 1010 cells.

The compound `CCOC(=O)COc1ccc(C(=O)NC2CCCCC2)cc1` showed a cell count of 1490 cells.

In turn, `CC(=O)N1[C@H](Cc2ccccc2)C=C[C@]1(C)C(=O)NCCc1c[nH]c2ccccc12` returned a cell count of 435 cells.

For the compound `Cc1ccc2nc(/C(C#N)=C\c3ccc([N+](=O)[O-])o3)[nH]c2c1`, the cell count is 77 cells.

For `O=[N+]([O-])c1ccc(N/N=C/c2sc(N3CCOCC3)nc2-c2ccccc2)c(S(=O)(=O)Nc2ccc(Cl)cc2)c1`, the cell count stood at 368 cells.

Regarding `CCn1cc(C(=O)NCCN(C)CCc2ccccc2)c(=O)c2cc(S(=O)(=O)N(C)C)ccc21`, the cell count came to 1560 cells.

In the case of `CCc1cc2c(NCc3ccco3)ncnc2s1`, the cell count was 367 cells.

In turn, `O=C(COc1ccc(Cl)cc1)NCc1nnc(SCC(=O)NC2CCCCC2)o1` registered a cell count of 1190 cells.

For the compound `COc1ccc(-n2c(-c3ccc(Br)cc3)c[n+]3c2SC(C)C3)cc1` (stereo not drawn), the cell count was determined as 378 cells.

As to `O=C1S/C(=C/c2ccc(N3CCOCC3)o2)C(=O)N1Cc1ccc(F)cc1`, the cell count was 1480 cells.

On to `NS(=O)(=O)c1ccc(NC=C2C(=O)OC3(CCCCC3)OC2=O)cc1`, for which the cell count worked out at 1180 cells.

`Cc1ccc2nc(/C(C#N)=C\c3ccc(N4CCOCC4)o3)[nH]c2c1` showed a cell count of 951 cells.

Take `CC1CCCCC1NS(=O)(=O)c1ccc(S(=O)(=O)NCc2ccncc2)cc1` (stereo not drawn): the cell count stood at 324 cells.

Regarding `Cc1cc(NC(=O)CSc2ccc3nnc(-c4ccc(Cl)cc4)n3n2)no1`, the cell count stood at 395 cells.

Regarding `COc1cc2c3nnc(-c4ccc(F)cc4)c-3cn(Cc3ccccc3)c2cc1OC`, the cell count came out at 1820 cells.

In turn, `Cc1ccc(Nc2nc(N)nc(CN3CCN(Cc4ccc5c(c4)OCO5)CC3)n2)c(C)c1` gave a cell count of 336 cells.

Consider `CC1=CN2C(=N)/C(=C/c3ccc([N+](=O)[O-])o3)C(=O)N=C2S1`, for which the cell count was found to be 515 cells.

`CCC(C)NS(=O)(=O)c1ccc(S(=O)(=O)N2CCCC3(CCCCC3)C2)cc1` (stereo not drawn) had a cell count of 486 cells.

In turn, `CC(C)(C)c1ccccc1OCC(=O)Nc1ncn[nH]1` yielded a cell count of 379 cells.

Consider `CCCCN1C(=O)C2(NNc3ccccc3O2)c2ccccc21` (stereo not drawn), for which the cell count was found to be 694 cells.

Consider `O=S(=O)([O-])CCC[n+]1c(/C=C\Nc2ccccc2)oc2ccc(-c3ccccc3)cc21`, for which the cell count is 1060 cells.

The compound `Nc1ccc2c(c1)Cc1cc([N+](=O)[O-])ccc1-2` gave a cell count of 1180 cells.

`Cc1cccc(N=Cc2[nH]c3ccc(Br)c(Cl)c3c2O)c1` yielded a cell count of 1300 cells.

Consider `Cc1cc(C)c2sc(NNC(=O)c3ccc(S(=O)(=O)N4CCc5ccccc5C4)cc3)nc2c1`, for which the cell count turned out to be 366 cells.

Compound `C(=C\c1nc(N2CCCCCC2)c2ccccc2n1)/c1ccccc1` returned a cell count of 420 cells.

`Cc1cc(=O)[nH]c(SCC(=O)/C=C2\N(C)c3ccccc3C2(C)C)n1`: the cell count was found to be 268 cells.

Source of the values: PubChem BioAssay AID1625 (Sanford-Burnham Center for Chemical Genomics, 2009).
